{
  "source": "paper PMC8437434",
  "about": "“Hsp40s play complementary roles in the prevention of tau amyloid formation” (eLife, 2021)",
  "binders": {"B1": {"name": "HSPB1 3D GXG variant (S15D, S78D, S82D, I181G, V183G) (natural protein)", "chain": "not shown", "notes": "also called HSPB1 dimer; source: E. coli BL21 (DE3), purified (Ni-NTA, tag cleaved, Superdex 200); not shown: His6, N-terminal, cleaved"}, "B2": {"name": "tau^4R P301S (domain or fragment)", "chain": "not shown", "notes": "tau […] with C322A and the familial tauopathy mutation P301S; also called tau P301S mutant; source: E. coli BL21 (DE3), purified (Ni-NTA, tag cleaved, Superdex 75); not shown: His6, N-terminal, cleaved"}, "B3": {"name": "preformed tau^4R fibrils (complex)", "chain": "not shown", "notes": "tau […] with C322A, assembled into amyloid fibrils; Same chain as m2 in the amyloid state; also called tau fibers; tau amyloid fibrils; source: E. coli BL21 (DE3), purified; preformed fibers; not shown: His6, N-terminal, cleaved"}, "B4": {"name": "tau C291S, C322S, L243C-AF488 (natural protein)", "chain": "not shown", "modifications": "AF488 (as printed: L243C-AF488)"}, "B5": {"name": "tau^4R ([…], C322A) (domain or fragment)", "chain": "not shown", "notes": "it is told apart by the assay (a2, a9, a11); Used 15N-labelled, deuterated or unlabelled; also called K18; monomeric tau; source: E. coli BL21 (DE3), purified (Ni-NTA, tag cleaved, Superdex 75); not shown: His6, N-terminal, cleaved"}, "B6": {"name": "tau^4R P301L (domain or fragment)", "chain": "not shown", "notes": "tau […] with C322A and the familial tauopathy mutation P301L; also called tau P301L mutant; source: E. coli BL21 (DE3), purified (Ni-NTA, tag cleaved, Superdex 75); not shown: His6, N-terminal, cleaved"}},
  "conditions_in_all_cases": "both partners purified",
  "key": {"[1]": {"biological_target": "T1, full-length tau (2N4R), C322S (UniProt P10636-8 1-441, C322S)", "T1 construct": "microtubule-associated protein tau, longest splice isoform 2N4R, with C322S; 15N-labelled for NMR; also called 15N-tau; source: E. coli BL21 (DE3), purified (Ni-NTA, tag cleaved, Superdex 75); not shown: His6, N-terminal, cleaved", "assay": "NMR titration; 1H-15N HSQC-TROSY of 200 µM 15N-tau, tau^4R or tau^4R P301S/P301L alone and with twofold excess (400 µM) of chaperone; intensity ratios I/I0; 50 mM HEPES pH 7.0, 50 mM KCl, 1 mM DTT, 25 °C; no heparin"}, "DNAJA2 [2]": {"biological_target": "T2, DNAJA2 (UniProt O60884 1-412)", "T2 construct": "DNAJA2, class A J-domain protein; homodimer (90 kDa dimer as printed); also called class A JDP; Hsp40; source: E. coli BL21 (DE3), purified (Ni-NTA, tag cleaved, Superdex 200); not shown: His6, N-terminal, cleaved", "assay": "NMR titration; 1H-15N HSQC-TROSY of 200 µM 15N-tau, tau^4R or tau^4R P301S/P301L alone and with twofold excess (400 µM) of chaperone; intensity ratios I/I0; 50 mM HEPES pH 7.0, 50 mM KCl, 1 mM DTT, 25 °C; no heparin"}, "full-length DNAJB1": {"biological_target": "T3, full-length DNAJB1 (UniProt P25685 1-340)", "T3 construct": "DNAJB1, class B J-domain protein; homodimer; plasmid a gift from B. Bukau; 2H, 13CH3-ILVM labelled for methyl-TROSY NMR; also called class B JDP; Hsp40; source: E. coli BL21 (DE3), purified (Ni-NTA, tag cleaved, Superdex 200); not shown: His6, N-terminal, cleaved", "assay": "NMR titration; 1H-15N HSQC-TROSY of 200 µM 15N-tau, tau^4R or tau^4R P301S/P301L alone and with twofold excess (400 µM) of chaperone; intensity ratios I/I0; 50 mM HEPES pH 7.0, 50 mM KCl, 1 mM DTT, 25 °C; no heparin"}, "[3]": {"biological_target": "B1", "assay": "NMR titration; 1H-15N HSQC-TROSY of 200 µM 15N-tau, tau^4R or tau^4R P301S/P301L alone and with twofold excess (400 µM) of chaperone; intensity ratios I/I0; 50 mM HEPES pH 7.0, 50 mM KCl, 1 mM DTT, 25 °C; no heparin"}, "DNAJB1 G194C-AF488": {"biological_target": "T4, DNAJB1 G194C-AF488 (UniProt P25685 1-340, G194C, AF488 (as printed: G194C-AF488))", "T4 construct": "DNAJB1 with G194C, labelled with AF488; also called fluorescently tagged DNAJB1", "assay": "fluorescence polarisation; steady-state binding of 100 nM AF488-labelled chaperone to preformed tau fibers; 37 °C; one-site model"}, "DNAJA2-AF488": {"biological_target": "T5, DNAJA2-AF488 (UniProt O60884 1-412, AF488 (site not stated))", "T5 construct": "DNAJA2 labelled with AF488; also called fluorescently tagged DNAJA2", "assay": "fluorescence polarisation; steady-state binding of 100 nM AF488-labelled chaperone to preformed tau fibers; 37 °C; one-site model"}, "DNAJA2 [4]": {"biological_target": "T2, DNAJA2", "assay": "fluorescence polarisation; fluorescence anisotropy of 100 nM AF488-labelled monomeric tau with chaperones; 10 min at 37 °C; one-site model"}, "[5]": {"biological_target": "B1", "assay": "fluorescence polarisation; fluorescence anisotropy of 100 nM AF488-labelled monomeric tau with chaperones; 10 min at 37 °C; one-site model"}, "DNAJA2(Ydj1)^111-351": {"biological_target": "T6, DNAJA2(Ydj1)^111-351 (Saccharomyces cerevisiae, UniProt P25491 111-351)", "T6 construct": "Ydj1, DNAJA2 homologue of Saccharomyces cerevisiae, residues 111-351 (CTDI with ZFLR, CTDII; no dimerization domain; monomeric, 27 kDa); 2H, 15N labelled; also called monomeric version of Ydj1; source: E. coli BL21 (DE3), purified (Ni-NTA, tag cleaved); not shown: His6, N-terminal, cleaved", "T6 sequence (looked up)": "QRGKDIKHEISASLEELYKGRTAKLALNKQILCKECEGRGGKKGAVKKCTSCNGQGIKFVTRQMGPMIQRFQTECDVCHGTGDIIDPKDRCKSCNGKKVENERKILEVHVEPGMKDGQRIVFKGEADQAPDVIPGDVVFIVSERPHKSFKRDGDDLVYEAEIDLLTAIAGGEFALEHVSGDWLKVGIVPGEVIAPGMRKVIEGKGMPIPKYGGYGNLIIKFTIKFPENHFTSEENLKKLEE", "assay": "NMR titration; 1H-15N HSQC-TROSY of 200 µM 2H,15N-labelled DNAJB1^154-341, Ydj1^111-351 or Ydj1^256-409 alone or with twofold excess of deuterated monomeric tau^4R; 50 mM HEPES pH 7.0, 50 mM KCl, 25 °C; no heparin"}},
  "data": [
    {"binder": "B1", "values": [
      {"measurement": "binding result", "setting": "[1]", "value": "binds"}
    ]},
    {"binder": "B2", "values": [
      {"measurement": "binding result", "setting": "DNAJA2 [2]", "value": "binds"},
      {"measurement": "binding result", "setting": "full-length DNAJB1", "value": "binds"},
      {"measurement": "binding result", "setting": "[3]", "value": "binds"}
    ]},
    {"binder": "B3", "values": [
      {"measurement": "Kd", "setting": "DNAJB1 G194C-AF488", "value": 1700, "unit": "nM"},
      {"measurement": "Kd", "setting": "DNAJA2-AF488", "value": 7.6, "unit": "µM"}
    ]},
    {"binder": "B4", "values": [
      {"measurement": "Kd", "setting": "DNAJA2 [4]", "value": 43, "unit": "µM"},
      {"measurement": "Kd", "setting": "[5]", "value": 250, "unit": "µM"}
    ]},
    {"binder": "B5", "values": [
      {"measurement": "binding result", "setting": "DNAJA2(Ydj1)^111-351", "value": "binds"}
    ]},
    {"binder": "B6", "values": [
      {"measurement": "binding result", "setting": "DNAJA2 [2]", "value": "binds"},
      {"measurement": "binding result", "setting": "full-length DNAJB1", "value": "binds"},
      {"measurement": "binding result", "setting": "[3]", "value": "binds"}
    ]}
  ]
}
